Source: PubChem BioAssay AID651820 (National Center for Advancing Translational Sciences (NCATS), 2012)
The whole screen tested about 340,000 compounds, of which about 12,000 (3.5%) were called active. Inconclusive means that the source gave no clear call. Such entries were picked first, then a sample of the others. Calls come from the whole dose curve; as a rule, active = well fitted inhibition curve with a large enough effect; inconclusive = small, poorly fitted or top-dose-only effect, or another doubt; inactive = no such curve, though single readings can be large or run the other way. Potencies of inconclusive entries are left out as doubtful fits.

Assay: qHTS Assay for Inhibitors of Hepatitis C Virus (HCV)
Details: Huh7.5.1 HCVcc-Cre (HCVcc is cell-culture hepatitis C virus) infection, luciferase reporter, 44 h; activity change, negative = inhibition: at 41.8 µM (top of the series) unless noted
Procedure, shortened: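 Seed cells (1,000/well) for 4 h; treat with compound and infect with HCVcc-Cre, moi about 0.5. Incubate 44 h, then detect luciferase activity.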
% is set by controls: 0 for no effect and ±100 for the full control effect; potency is the fitted concentration of half-maximal effect; tags give direction and shape of the fitted curve.

SMILES	Potency	activity change, negative = inhibition
COc1ccc(-n2c(C)nn(C)c2=O)cc1	inactive	–
Cc1oc2ccc(O)cc2c1C(=O)OC(C)C	inconclusive [inhibitor, partial curve]	–
Oc1ccccc1CNc1cccc2cccnc12	inactive	–
COc1ccc(NC(=O)C2Cc3ccccc3C(=O)O2)cc1 (stereo not given)	inactive	–
Cc1ccc(C)c(OCC(=O)N/N=C/c2c(C)nn(-c3ccccc3)c2Cl)c1C	inconclusive [inhibitor, full curve, poor fit]	–
COC(=O)[C@@H](c1ccccc1)N(C)S(=O)(=O)c1cccc(S(=O)(=O)N(C)[C@@H](C(=O)OC)c2ccccc2)c1	inconclusive [inhibitor, single point]	–
Cn1c(SCC(=O)Nc2sccc2C#N)nnc1C1CC1	inactive	–
N#C/C(=C/c1ccco1)c1nc2ccccc2s1	inconclusive [inhibitor, partial curve]	–
COc1ccc(N=c2oc3cc(O)ccc3cc2C(=O)Nc2ccccn2)cc1OC	inconclusive [inhibitor, single point]	–
Cc1cc(C(F)(F)F)nc(-n2cc(-c3ccccc3)nn2)n1	inactive	–
COC(=O)c1ccc(NC(=O)c2ccc(N(C)S(C)(=O)=O)cc2)cc1	inconclusive [inhibitor, partial curve]	–
COc1cccc2sc3cc(NCc4ccc(C)o4)ccc3c(=O)c12	inconclusive [inhibitor, single point]	–
CCN(C(=O)C(C)Cl)c1ccccc1 (stereo not given)	inactive	–
Cc1ccc(-c2nnn(CC(=O)N(CC(=O)NC(C)C)c3cnc4ccccc4c3)n2)o1	inactive	–
Nc1ccc(-c2nc3ccc(N)cc3[nH]2)cc1	inactive	–
COc1ccc(-n2c(C)nc(=O)c(-c3ccccc3)c2C)cc1	inactive	–
COCCCNC(=O)c1c(N)n(-c2ccccc2)c2nc3ccccc3nc12	active: 12.6 µM	–
COc1cc(NC(=O)CN2C(=O)NC(C)(c3ccc(OC(F)F)cc3)C2=O)cc(OC)c1OC (stereo not given)	inconclusive [inhibitor, full curve, poor fit]	–
Cc1cccc2cc(C#N)c(NCCCn3ccnc3)nc12	inconclusive [inhibitor, partial curve]	–
CCOc1ccccc1C(=O)NC(C(=O)N(C)c1c(N)n(Cc2ccccc2)c(=O)[nH]c1=O)C(C)C (stereo not given)	inconclusive [inhibitor, single point]	–
C=CCc1c(C)nc(-c2ccccc2)nc1N/N=C/c1ccccc1	inconclusive [inhibitor, single point]	–
CCCN(CCC)C(=S)NC(=O)c1ccc(-c2ccccc2)cc1	inconclusive [inhibitor, single point]	–
CCC(C)NC(=O)CCc1nc2ccccc2n1-c1ccccc1 (stereo not given)	inactive	–
O=C(CSc1nnc(-c2cccc(F)c2)o1)NC1CCCC1	inconclusive [inhibitor, single point]	–
COc1ccccc1CN1C(=O)CN(C2CCCCCC2)C(=O)C1c1ccc(F)cc1 (stereo not given)	inconclusive [inhibitor, single point]	–

SMILES	Potency	activity change, negative = inhibition
Cc1ccc(OCCOCCNC(C)C)c(Br)c1	inconclusive [inhibitor, single point]	–
OC(CN1CC=C(/C=C/c2ccc(Br)cc2)CC1)c1ccccc1 (stereo not given)	inconclusive [inhibitor, single point]	–
COC(=O)c1ccc(NC(=O)CNC(=O)C2CCCCC2)c(C)c1	inactive	–
CCCCn1cnc2c(SCc3ccc(Cl)cc3)nc(N)nc21	inconclusive [inhibitor, single point]	–
O=C(NNc1cc(C(F)(F)F)nc2ccccc12)Nc1cccc(Cl)c1	inconclusive [inhibitor, partial curve]	–
N#Cc1c(-c2ccc(Cl)cc2)c2c([nH]c1=O)-c1ccccc1OC2	inactive	–
COc1cc(C(=O)N/N=C/c2ccsc2C)cc(OC)c1OC	inconclusive [inhibitor, full curve]	–
C/C(=N/N=C/c1ccccc1O)c1ccccc1O	inactive	–
CCOc1ccc(S(=O)(=O)N2CCN(CC(O)COc3cccc([N+](=O)[O-])c3)CC2)cc1 (stereo not given)	inactive	–
N#CC1=C(N)C2=CCCC[C@H]2[C@H](c2ccc(Br)cc2)C1(C#N)C#N	inactive	–
Cc1cc(C)n2nc(SCC(=O)N3CCOCC3)nc2n1	inactive	–
Cc1ccc(C(C)C)cc1C(=O)CC1(O)C(=O)N(C)c2ccccc21 (stereo not given)	inconclusive [inhibitor, single point]	–
CCN(c1ccc(NC(=O)COC(=O)CCc2nc3ccccc3n2-c2ccccc2)cc1)C(C)C	inconclusive [inhibitor, partial curve]	–
CCNC(=S)NCc1ccc2[nH]c(C)cc2c1	–	inactive: 0.524% [at 8.37 µM]
CCOC(=O)C1(Cc2ccccc2)CCN(Cc2csc(C(C)=O)c2)CC1	inconclusive [inhibitor, single point]	–
O=C(COC(=O)c1cc(S(=O)(=O)N2CCOCC2)ccc1F)NC1CC1	inactive	–
CN(CC(=O)Nc1ccc(Cl)cc1)c1ccc(S(=O)(=O)N2CCCCC2)cc1[N+](=O)[O-]	active: 12.6 µM	–
Cc1cccc(NC(=O)CCc2ccccc2)c1	inconclusive [inhibitor, single point]	–
CSc1ccc(Cl)c(C(=O)OCC(=O)N2CCNC2=O)c1	inconclusive [inhibitor, single point]	–
O=c1ccc(-c2ccccc2)nn1Cc1ccccc1F	inconclusive [inhibitor, partial curve]	–
Fc1cccc(-c2nnn3c2nc(Cl)c2ccccc23)c1	–	inconclusive: -66.1% [inhibitor]
CC(=O)NC1(c2ccccc2)CCN(Cc2nnnn2C(C)(C)C)CC1	inactive	–
CC(C)Nc1nc(NC(C)C)nc(C(N)=O)n1	inactive	–
Cc1ccc(OC(C)C(=O)Nc2ccc3c(c2)n(C)c(=O)n3C)cc1C (stereo not given)	inconclusive [inhibitor, partial curve]	–
CCC(=O)Nc1ccccc1Oc1ccccc1	inconclusive [inhibitor, single point]	–

SMILES	Potency	activity change, negative = inhibition
CN(C)S(=O)(=O)c1cccc(NC(=S)NCc2ccc3c(c2)OCO3)c1	inconclusive [inhibitor, single point]	–
CS(=O)(=O)n1nc(-c2cccnc2)nc1NCc1ccccc1	inconclusive [inhibitor, single point]	–
NC(=O)C1CCCN(C(=S)Nc2cccc3ccccc23)C1 (stereo not given)	inactive	–
O=C(CN1C(=O)NC2(CCOc3ccccc32)C1=O)N1CCCCC1 (stereo not given)	inactive	–
N#Cc1cc(Nc2c(N)nc[nH]c2=O)c([N+](=O)[O-])cc1C#N	inconclusive [inhibitor, single point]	–
O=C(Cc1c(Cl)cccc1Cl)Nc1ccncc1	inactive	–
CCOc1ccc(NC(=O)CN(C)C(=O)c2ccc(C3SCCS3)cc2)cc1OCC	inconclusive [inhibitor, full curve]	–
CC(C)NS(=O)(=O)c1ccc(NC(=O)C2CCCCC2)cc1	inconclusive [inhibitor, single point]	–
CCOc1nc(C#N)nc(N2CCCCC2)n1	inconclusive [inhibitor, single point]	–
Cc1ccc(S(=O)(=O)/N=C2\C=C(Nc3ccc(O)cc3)C(=O)c3ccccc32)cc1	active: 6.31 µM	–
COc1cc2c(cc1OC)C(=O)N1[C@H]3c4ccccc4OC[C@@H]3[C@H](c3ccccc3)[C@]1(C)C(=O)N2	inconclusive [inhibitor, partial curve]	–
CCO[C@@H]1OC(C(=O)NC2CC2)=C[C@H](c2coc3ccccc3c2=O)[C@H]1CCCO	inactive	–
CCn1c2ccccc2c2cc(NS(=O)(=O)c3ccccc3C)ccc21	inconclusive [inhibitor, partial curve, poor fit]	–
Cc1cccc(CN2C[C@]34CC[C@@H](C[C@@H]3S2(=O)=O)O4)c1	active: 7.08 µM	–
COC(=O)C1CN(C(=O)C(C)Oc2ccc(F)cc2)c2ccccc2O1 (stereo not given)	inactive	–
COc1cccc(CC(=O)N2CCCC(CCC(=O)N3CCN(c4ccccn4)CC3)C2)c1 (stereo not given)	inconclusive [inhibitor, single point]	–
COc1ccc(/C=N\NC(=O)c2ccccc2OC)cc1COc1ccccc1C	inconclusive [inhibitor, partial curve]	–
Cc1ccsc1/C=C1\CCc2ccccc2C1=O	inactive	–
Cc1ccc(OCC(=O)N/N=C\c2cccn2C)c([N+](=O)[O-])c1	inactive	–
CSc1sc(-c2ccnc(SCC(=O)C(C)(C)C)n2)c2c1C(=O)CC(C)(C)C2	inactive	–
COc1cc(OC)c(C2=NOC(C(=O)N3CCCc4ccccc43)C2)cc1Cl (stereo not given)	active: 5.62 µM	–
Cc1ccc(NC(=O)CCc2c(C)nn(-c3ccc(N4CCCCC4)nn3)c2C)cc1C	inconclusive [inhibitor, partial curve]	–
O=C(NCCN1C(=O)S/C(=C\c2ccc(Cl)c(Cl)c2)C1=O)c1ccc2c(c1)C(=O)N(Cc1ccncc1)C2=O	inconclusive [inhibitor, partial curve]	–
N#CCCN(C(=O)COC(=O)c1ccc2c(c1)OCCO2)c1ccccc1	inconclusive [inhibitor, partial curve]	–
Cc1cc(C(=O)NC2CC(C)(C)Cc3c2cnn3-c2ccccc2)n(C)n1 (stereo not given)	inactive	–
